Assay results from the RNAGym collection of RNA variant scans (doi:10.1093/nar/gkz1192).
The source gives no read counts; variants with many changes may rest on few reads.

B1: CPEB3 Ribozyme (parent)
chain: UAACAGGGGGCCACAGCAGAAGCGUUCACGUCGCAGCCCCUGUCAGAUUCUGGUGAAUCUGCGAAUUCUGCUGUAUAUCUC

Variants of: B1
Experiment: self-cleavage, relative activity (ratio to wild type); higher = more cleavage; in vitro, sequencing
Outline: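 CPEB3 self-cleaving ribozyme mutant libraries were made by rounds of error-prone PCR, barcoded, and transcribed in vitro with T7 RNA polymerase for 5 hours at 37°C. Cleavage occurred during transcription and a 15 min DNase I step before EDTA stop. RNAs were reverse transcribed with template switching and Illumina-sequenced, with DNA sequencing mapping barcodes to variants. Relative activity is the variant's cleaved/total read fraction divided by wild type's (minimum 5 reads), averaged across three batches.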

Variant | self-cleavage
A13G C39A A77U | 0.12
A13G C39U U41C A45U | 0.33
A13G C39U U43C U60C U69A U78A | 0.06
A13G C40A A45G U72C | 0
A13G C40A A56U A65G | 0.09
A13G C40A U58C U67C G73A | 0.21
A13G C40U U43C U51C A57G | 0.32
A13G C44A U80C | 0.46
A13G C44G U48A U49A C62U U69G A77G | 0.03
A13G C50U U67C | 0.1
A13G C62G A65U | 0.11
A13G G16A A18G U25C G63U G70U | 0.23
A13G G16A A45G A56G U80A | 0.09
A13G G16A U54A U72C | 0.34
A13G G16C G19U | 0.34
A13G G16U A28G G61A | 0.08
A13G G19A A21G A45G | 0.11
A13G G19C U43A A45U | 0.08
A13G G22C G73C | 0.1
A13G G24A U49C | 0.18
A13G G30A A57G | 0.2
A13G G30A U54C U66C U69C U72C U76A | 0.13
A13G G30A U69C | 0.15
A13G G30U G53A U60C U66C U69A U72A | 0.07

Variant | self-cleavage
A13G G33C A47G U49C | 0.14
A13G G33U A45U | 0.26
A13G G36A U60A | 0.09
A13G G42A C44U | 0.26
A13G G42A U76A | 0.16
A13G G42C U60C | 0.17
A13G G52U A57G U80A | 0.89
A13G G53A U67C U78C | 0.18
A13G G63A A75G | 0.69
A13G U25A C37U A45G U58C | 0.04
A13G U25A U41A U49A U51G G63U | 0.23
A13G U25A U60C | 0.15
A13G U25C A28G U31C A64G U74A | 0.14
A13G U25C A35C U41C U67C | 0.48
A13G U25C A35G U43C U60C | 0.15
A13G U25C A35G U51C | 0.37
A13G U25C A47G U54C G61A U69C U74C | 0.37
A13G U25C A47G U76A | 0.39
A13G U25C A47U U69A | 0.13
A13G U25C C34U U54C | 0.1
A13G U25C C37U G55U U66C U78C | 0.05
A13G U25C C50U U51C U54C A56G | 0.04
A13G U25C U26A U60C | 0.32
A13G U25C U26C A45G U74C | 0.41

Variant | self-cleavage
A13G U25C U26C C62U | 0.07
A13G U25C U31C A47G A75U | 0.16
A13G U25C U31C A64G U74A | 0.21
A13G U25C U31C U43A G73A A77G | 0.06
A13G U25C U41C A77U U78C | 0.25
A13G U25C U41C U49C U66C | 0.1
A13G U25C U41C U58A | 0.08
A13G U25C U48A U69C U76C | 0.06
A13G U25G A28U | 0.17
A13G U25G G30C U76C A77G | 0.09
A13G U26A A56G U72G | 0.41
A13G U26A A65U U80C | 0.29
A13G U26A G36U A47U | 0.06
A13G U26A G61C | 0.16
A13G U26A U41A U43A | 0.1
A13G U26A U41C U49C U76C | 0.04
A13G U26C A28G A75U | 0.22
A13G U26C A35G A57G U67C | 0.1
A13G U26C A35U U69A U72C | 0.2
A13G U26C A56G | 0.16
A13G U26C A64G | 0.32
A13G U26C A64U | 0.15
A13G U26C C29U U49C A64U | 0.13
A13G U26C C62U | 0.21

Variant | self-cleavage
A13G U26C U31C C59U A64G | 0.17
A13G U26C U41C U49A U51C A56U A57G | 0.08
A13G U26C U41G A56G | 0.32
A13G U26C U43C | 0.56
A13G U26C U49C U58C | 0.23
A13G U26C U60A U72C | 0.44
A13G U26C U72A A75G | 0.12
A13G U26G U74C | 0.23
A13G U31A A47G | 0.39
A13G U31A A64G | 0.24
A13G U31A U43C | 0.21
A13G U31A U60G C62G | 0.11
A13G U31C A65U | 0.17
A13G U31C C37G C38G C44A | 0.02
A13G U31C C40A C44A U69A U80C | 0.35
A13G U31C C44U | 0.45
A13G U31C U41A U72C | 0.2
A13G U31C U41C U49C A65G C79U | 0.03
A13G U31C U69C | 0.12
A13G U41A A56G A64U | 0.22
A13G U41A C62U U72G | 0.11
A13G U41A U49C A56U U78C | 0.15
A13G U41C A47G | 0.52
A13G U41C A56G U80C | 0.84

Variant | self-cleavage
A13G U41C G63U | 0.81
A13G U41C U48A | 0.19
A13G U41C U51G U54C | 0.37
A13G U41G A57G | 0.37
A13G U43A A65G | 0.49
A13G U43A U51C G52U U60A | 0.27
A13G U43A U54A A57G A64G | 0.65
A13G U43C A45G | 0.36
A13G U43C A75U U80C | 0.68
A13G U43C U49C | 0.39
A13G U43C U51A C62U U72C | 0.12
A13G U43C U72A | 0.26
A13G U43G U48C | 0.14
A13G U48C G53A A65G | 0.19
A13G U48C U51C | 0.37
A13G U48C U51C G52A A64G U69C | 0.12
A13G U48C U51C U80C | 0.4
A13G U48C U58C | 0.52
A13G U48C U72A | 0.2
A13G U48G U76C | 0.41
A13G U49C U67A | 0.15
A13G U51A A57G U58C G63C A64G U78A | 0.21
A13G U51A U66C U67C | 0.06
A13G U51C A57G U58C | 0.14

Variant | self-cleavage
A13G U54A G61A U80C | 0.63
A13G U54C A65G | 0.25
A13G U58A U69A | 0.13
A13G U58C U72G | 0.07
A13G U58C U80A | 0.4
A13G U58C U80C | 0.43
A13G U60C G70A U80A | 0.21
A13G U60C U72G | 0.19
A13G U60C U74C | 0.32
A13G U60C U74G | 0.7
A13G U67A U69A | 0.06
A13G U67C G70A U80C | 0.17
A13G U72C U78C | 0.87
A13G U74C U80G | 0.77
A13G U76C U78C | 1.13
A13G U78C U80C | 0.52
A13U A15C A21G U41C A56U U67C U72C | 0.14
A13U A15G A18U A21C C34U U67A | 0.15
A13U A15G A20G A35C A47G | 0.08
A13U A15G A20G U67C | 0.48
A13U A15G A21G U60A | 0.14
A13U A15G A35U | 0.35
A13U A15G A56G A57G U72G | 0.21
A13U A15G A65G U76C | 0.5

Variant | self-cleavage
A13U A15G G16U A20G | 0.54
A13U A15G U26C U49C U74C | 0.48
A13U A15G U31C C32U U60C U67C | 0.04
A13U A15G U31G | 0.71
A13U A15U A18G U72C | 0.35
A13U A15U A28U C59A | 0.07
A13U A15U A35U | 0.38
A13U A15U A45U U80A | 0.26
A13U A15U A56U A75U | 0.21
A13U A15U A64U | 0.21
A13U A15U C23G A28U C62A U78A | 0.06
A13U A15U C29U G33U U48C A57G C62U | 0.03
A13U A15U U25C G33C A75G U78C | 0.03
A13U A15U U31A U80A | 0.45
A13U A18G A20G U25C U26C | 0.44
A13U A18G A45G C62A | 0.35
A13U A18G A64G | 0.81
A13U A18G A65G | 0.26
A13U A18G C40A U43A U66A A75U | 0.11
A13U A18G U26A C62U | 0.16
A13U A18G U41A A47G G52A U80G | 0.58
A13U A18G U49C A65G A77U | 0.4
A13U A18G U51A A77U | 0.59
